Experimental data: patent US20250333507A1 (SHANGHAI CELGEN BIO PHARMACEUTICAL, published 2025)
Where “and” joins values, the source holds several entries; their conditions need not be identical. Identical values can stand only once.

Tests used:
[1] = biological target: T1, mouse IL2R on CTLL-2 cells (mouse, UniProt P01590 22-268); assay: cell-based or functional assay
T1 sequence (looked up): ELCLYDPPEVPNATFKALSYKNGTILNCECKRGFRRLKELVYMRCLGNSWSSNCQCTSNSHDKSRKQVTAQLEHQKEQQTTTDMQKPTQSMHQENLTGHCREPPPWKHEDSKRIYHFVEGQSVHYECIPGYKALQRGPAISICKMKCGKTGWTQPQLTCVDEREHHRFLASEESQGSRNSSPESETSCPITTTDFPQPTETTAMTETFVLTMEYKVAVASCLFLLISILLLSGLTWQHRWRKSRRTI

[2] = biological target: T2, IL2Rβγ (dimer) on 293F cells (human, UniProt P14784 27-551; P31785 23-369); assay: flow cytometry on 293F cells expressing IL2Rβγ
T2 construct: whole, on cells; also called IL2Rβγ subunit
T2 sequence (looked up) 1: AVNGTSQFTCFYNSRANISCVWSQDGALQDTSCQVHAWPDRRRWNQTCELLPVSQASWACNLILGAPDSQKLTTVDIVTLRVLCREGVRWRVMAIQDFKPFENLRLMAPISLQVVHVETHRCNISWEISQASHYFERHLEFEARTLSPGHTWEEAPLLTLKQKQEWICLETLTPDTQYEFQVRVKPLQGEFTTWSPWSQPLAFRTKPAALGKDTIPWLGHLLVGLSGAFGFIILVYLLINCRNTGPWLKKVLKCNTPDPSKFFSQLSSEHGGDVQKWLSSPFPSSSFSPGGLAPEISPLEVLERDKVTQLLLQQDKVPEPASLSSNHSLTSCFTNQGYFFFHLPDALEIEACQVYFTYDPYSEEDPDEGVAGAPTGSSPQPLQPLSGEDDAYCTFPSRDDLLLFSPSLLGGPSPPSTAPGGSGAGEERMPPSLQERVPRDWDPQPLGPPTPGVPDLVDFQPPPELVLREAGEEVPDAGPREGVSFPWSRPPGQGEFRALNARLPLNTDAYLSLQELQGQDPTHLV
T2 sequence (looked up) 2: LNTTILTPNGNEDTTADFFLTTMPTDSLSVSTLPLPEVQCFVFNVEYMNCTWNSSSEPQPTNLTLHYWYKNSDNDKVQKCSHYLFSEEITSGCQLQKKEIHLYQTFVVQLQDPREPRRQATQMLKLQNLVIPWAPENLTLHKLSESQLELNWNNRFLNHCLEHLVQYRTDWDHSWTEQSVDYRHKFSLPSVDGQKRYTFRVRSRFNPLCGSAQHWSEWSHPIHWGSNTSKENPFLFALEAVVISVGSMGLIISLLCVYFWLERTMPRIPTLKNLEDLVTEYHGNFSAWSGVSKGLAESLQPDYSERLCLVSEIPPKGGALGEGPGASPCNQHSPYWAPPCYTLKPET
Description: First, human IL2Rα, IL2Rβ, and IL2Rγ expression plasmids (Sinobio) were co-transfected into 293F cells to transiently express the following IL2R complexes: IL2Rαβγ (trimer), IL2Rαγ (dimer), and IL2Rβγ (dimer). The expression of the respective IL2R subunits on the cell membrane was detected using antibodies against IL2Rα, IL2Rβ, and IL2Rγ.
Then, the binding activity of KD5201F, KD5201E, and control protein-1 to the 293F cells expressing the two types of IL2R complexes (αγ and βγ) was detected using flow cytometry.

[3] = biological target: T3, recombinant IL2Rα subunit (Sinobio) (UniProt P01589 22-213); assay: BLI, recombinant IL2Rα subunit
T3 sequence (looked up): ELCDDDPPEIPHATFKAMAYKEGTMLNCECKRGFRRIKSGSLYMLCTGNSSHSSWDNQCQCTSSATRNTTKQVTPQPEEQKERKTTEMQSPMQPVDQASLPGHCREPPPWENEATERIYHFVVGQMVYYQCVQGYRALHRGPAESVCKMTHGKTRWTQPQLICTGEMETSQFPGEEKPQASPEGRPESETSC

[4] = biological target: T4, full-length human TIGIT on the cell membrane (human, UniProt Q495A1 22-244); assay: flow cytometry on Jurkat cells expressing human TIGIT
T4 construct: whole, on cells; the cell is named under assay or readout; also called CHO-K-TIGIT; CHO-TIGIT
T4 sequence (looked up): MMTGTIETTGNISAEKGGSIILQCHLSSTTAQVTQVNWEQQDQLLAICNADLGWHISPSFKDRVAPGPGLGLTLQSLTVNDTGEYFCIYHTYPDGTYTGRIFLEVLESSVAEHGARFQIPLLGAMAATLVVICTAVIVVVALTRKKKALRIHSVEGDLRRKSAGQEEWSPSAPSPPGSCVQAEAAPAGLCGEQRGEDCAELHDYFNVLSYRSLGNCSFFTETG
Description: The binding activity of the anti-TIGIT antibody-IL2 fusion proteins to TIGIT on the cell membrane was tested using flow cytometry. A Jurkat cell line stably expressing human TIGIT was first established. The full-length human TIGIT gene (Sinobio) was amplified by PCR and cloned into the mammalian cell expression vector pcDNA3.1 (Invitrogen), using Not I and Xba I as cloning enzymes. The TIGIT expression plasmid was transfected into Jurkat cells to construct a stable Jurkat cell line expressing TIGIT (TIGIT-Jurkat).
The flow cytometry study method for the binding of TIGIT antibody-IL2 fusion proteins to cell membrane-bound TIGIT is summarized as follows: FACS buffer (1×PBS+0.5% BSA solution) was prepared. The required number of TIGIT-Jurkat cells, about 1×10⁵ to 5×10⁵ cells per sample, was taken and incubated with TIGIT antibody-IL2 fusion protein diluted to a certain ratio in FACS buffer, approximately 100 μL, at 4° C. for 30 minutes. After washing the cells once with FACS buffer, they were resuspended in FITC-conjugated anti-human IgG (Abcam: 6854) diluted in FACS buffer and incubated at 4° C. for 30 minutes. Finally, after washing the cells with FACS buffer, they were resuspended in 200 μL of FACS buffer for analysis. The parent TIGIT antibody P03479 was used as a control.
The results were consistent with those obtained by binding recombinant TIGIT in vitro (Example 6).

B1: KD5201F, HC-IL2wt/LC(ART-Ig) anti-TIGIT antibody-IL2 fusion protein (other)
heavy 1: EVQVVESGGGLVKPGGSLRLSCAASGFTFSTYAMSWVRQAPGKGLEWVAEISSGGSHTFYADTVKGRFTISRDNAKNTLYLQMNSLRAEDTAVYYCARKTLDYYALDYWGQGTTVTVSSASTKGPSVFPLAPSSKSTSGGTAALGCLVKDYFPEPVTVSWNSGALTSGVHTFPAVLQSSGLYSLSSVVTVPSSSLGTQTYICNVNHKPSNTKVDKKV[sequence of human IgG1 Fc with D356K H435R (EU numbers) not given]GGGGSGGGGSGGGGS[sequence of about 150 residues not given]
heavy 2: EVQVVESGGGLVKPGGSLRLSCAASGFTFSTYAMSWVRQAPGKGLEWVAEISSGGSHTFYADTVKGRFTISRDNAKNTLYLQMNSLRAEDTAVYYCARKTLDYYALDYWGQGTTVTVSSASTKGPSVFPLAPSSKSTSGGTAALGCLVKDYFPEPVTVSWNSGALTSGVHTFPAVLQSSGLYSLSSVVTVPSSSLGTQTYICNVNHKPSNTKVDKKV[sequence of human IgG1 Fc with K439E (EU numbers) not given]
light: DVQITQSPSYLSASVGDRVTINCRASKSISKYLAWYQQKPGKAPKLLIYSGSRLQSGIPSRFSGSGYGTDFTLTISSLQPEDFATYYCQQHNEYPWTFGGGTKLEIKRTVAAPSVFIFPPSDEQLKSGTASVVCLLNNFYPREAKVQWKVDNALQSGNSQESVTEQDSKDSTYSLSSTLTLSKADYEKHKVYACEVTHQGLSSPVTKSFNRGEC
notes: Heterodimeric […] antibody with wild-type IL2 on the C-terminus of one heavy chain; also called HC1-IL2wt/LC1(ART-Ig); HC1-IL2 wt/LC1 (ART-Ig)
[1]
  EC50 of stimulating CTLL-2 cell growth (CCK-8): 0.0111 µg/mL and 0.0136 µg/mL
[2]
  binding result: binds
[3]
  Kd: ~3 nM
[4]
  EC50: 0.0628 µg/mL
